Data from the RNAGym collection of RNA variant scans (doi:10.7554/elife.90254).
Read counts are not given, so values of variants with three or more changes are uncertain.

B1: LINE1-mini (parent)
chain: GGCAGAGCUCAACACAGCGUGGCAAAGUGGCUGUGGCUAGACUGCC

Variants of: B1
Experiment: self-cleavage, relative activity (ratio to wild type); higher = more cleavage; in vitro, sequencing; the parent is a self-cleaving ribozyme

| Variant | self-cleavage |
| --- | --- |
| G7C G21A A26U U38G | 0.03 |
| G7U C10A C23U G33U G44A | 0.01 |
| C8A A16C C18U A25U U32A G40C | 0.09 |
| G7U A16G C31A C45G | 0.26 |
| C8A A14U A26C A39U | 0.14 |
| G7C C13A A16G C45A | 0.03 |
| G7U C8A G30A | 0.3 |
| G7U C15A C42A | 0.02 |
| C8A A11U C23U | 0.02 |
| G7C A41U C42A | 0.01 |
| G7U G35A C37G A39C | 0.24 |
| G7U A11U U34G | 0.02 |
| G7U A11U U34A | 0.13 |
| G7C C15G C31U G36C | 0.02 |
| G7C G29A G35C G36U A39U | 0.08 |
| G7C C10A A11G G21A C46G | 0.01 |
| G7U A11U A16C A25C | 0.01 |
| G7U A16G U32C A39U | 0 |
| G7C A26C G35U G36U C42U | 1.63 |
| G7U C8A A24U C31A A41G | 0.18 |
| G7U G19C U32G U34G A41C | 0.02 |
| G7C C15U A41C G44C | 0.15 |
| G7C C10U A25U | 0.02 |
| G7U C18G U38A G40A | 0.04 |

| Variant | self-cleavage |
| --- | --- |
| G7C A26G C31A G33A | 0.05 |
| C8A A11C G29C | 0.03 |
| G7U C23A G29U G33U | 0 |
| C8A A11G A12C A14C G27U | 0.01 |
| G7C C10A A14C G17A | 0.01 |
| C8A A11G A14G G21C G22A G27A U34G A39G | 0.04 |
| G7U A11U G21A G30A G44U | 0.05 |
| G7U C8G C15U G30U | 0.01 |
| C8A A11C A12G | 0.01 |
| C8A A14U A39U | 0.23 |
| G7U A11G A24U C31G C46U | 0.01 |
| G7C C18A G21U C37U C46U | 0.02 |
| G7U U9C C37A | 0.02 |
| C8A A11G A16C G30U U38C | 0.01 |
| G7C G22U C37A | 0.01 |
| C8A A11G A14U G29C G30A | 0.01 |
| G7U A12C G29A | 0.01 |
| G7U C13U A26U | 0.1 |
| G7U C23A G36A | 1.55 |
| G7U A12C A41C | 0.07 |
| G7U G22A G29A | 0.02 |
| G7C C13U G29A U38G | 0 |
| G7C G17A C18A U20A U34C G35C A41U C45G | 0.01 |
| G7U G19A U20C G30U C37G | 0.01 |

| Variant | self-cleavage |
| --- | --- |
| G7C G30C G44U C46U | 0.01 |
| G7U G19A C31U | 0.04 |
| G7U G19A C31A | 0.04 |
| G7C G19C C37U | 0.03 |
| C8A A14U U20C | 0.19 |
| G7U G21C C45U C46G | 0.61 |
| G7C C13U A26G C42U | 0.04 |
| G7U A14U G44C | 0.07 |
| G7U A14G C23U | 0.35 |
| G7U A14C C18U G21C A26C | 0.02 |
| G7U C31U C46A | 0.17 |
| G7U C13U C23U A26U | 0.09 |
| G7C U20C A25G U43C | 0.03 |
| G7U A16C C37A | 0.08 |
| C8A A14U G22U G29A G36U C37G G40U | 0.04 |
| G7U G29C U32A C46U | 0.03 |
| G7C U28G G33A | 0.09 |
| C8A A11C G21U U32G G40U | 0 |
| G7C C13A G21A G27C G35C G36U | 0.21 |
| C8A A14C G27A C46G | 0.07 |
| G7U A16G C37A | 0.02 |
| G7U C18A U28C | 0.03 |
| G7U U9G A16G C18A G22A G29C A39C G44U | 0.05 |
| G7U U9A G22A C37U | 0.04 |

| Variant | self-cleavage |
| --- | --- |
| G7C G22C C37G | 0.01 |
| G7U A16G G21U C23G A25U | 0.03 |
| G7C G21C G30U G35C C46G | 0.02 |
| G7U C15U G19A G33U | 0.17 |
| G7C C13A C23U G27U U32C | 0.02 |
| G7C C8G A25U U32A | 0.14 |
| G7C U20G G35U G40A C45G | 0.09 |
| C8A A12G A14C | 0.05 |
| G7C G35C C42A | 0.04 |
| G7U A11U G33A C37U | 0.02 |
| G7U A12C C18G G44C | 0.02 |
| G7C C10G G19U C45U | 0.01 |
| G7C C31A G33U | 0.08 |
| G7U C15U G40U | 0.16 |
| G7C C31G C37U | 0.02 |
| G7U C13U G21C G27U | 0.06 |
| G7C C8U U9A A16G C18A C42G | 0.22 |
| G7U G35U A39G | 0.05 |
| G7U A12U A26C | 0.03 |
| G7C G36U G40A U43C | 0.03 |
| G7U C23A U28A | 0.02 |
| G7U U9A A25U | 0.04 |
| G7U A11U C18G U32A U34A | 0.01 |
| G7U C18A U34G C42G | 0.02 |

| Variant | self-cleavage |
| --- | --- |
| G7C C10U G19C G21U G33U | 0.03 |
| C8A A16G G17U C18G U20C | 0.05 |
| C8A A14C G36C C46A | 0.05 |
| G7C G17C G22U | 0.04 |
| G7C A26G C31U | 0.02 |
| G7U C23G C42A | 0.02 |
| G7U A12C U32A | 0.02 |
| G7C C18A G19U U20C U43C | 0.08 |
| G7U C13U C18G A26G G33U G36A A41G | 0.05 |
| G7U C15A C18G U38C A41U | 0.25 |
| G7U G19U G35C C45A | 0.04 |
| G7U G21A G27C G40C | 0.2 |
| G7U G21C G33U U38C U43C | 0.08 |
| G7C C8A G29U C37A | 0.05 |
| G7U A25G U28A U34A | 0.06 |
| G7C G21U C23U | 0.43 |
| G7C C31G G35A C37A | 0.12 |
| G7C U9A U28A A41C | 0.05 |
| C8A A11G U28A U34A G35U U38G A41U | 0.01 |
| G7U A16C C23A | 0 |
| G7U U20G A24G G29U G30U C45U | 0.1 |
| G7U C10U A24C G36A | 0.02 |
| G7C G29A C37G G40U | 0.08 |
| C8A A14U C18U U20C G35U | 0.1 |

| Variant | self-cleavage |
| --- | --- |
| C8A A14U C23A | 0.21 |
| C8A A11U U38A | 0.01 |
| G7U G21C G22A A25G C45U | 0.1 |
| G7C C15G C46A | 0.04 |
| G7U G21U U28C G33U | 0.05 |
| G7U A11U G33U G44C C45A | 0.03 |
| G7U C10A C13A G22U C31G C45G | 0.01 |
| C8A A11G C46G | 0.03 |
| G7U G19U G40A | 0 |
| C8A A14U A24G | 0.05 |
| G7U G21A U38C | 0.15 |
| G7U C13U C45U | 0.18 |
| G7U A16U C37G | 0.31 |
| C8A A12U A16U U20A G35A A41G C46G | 0.04 |
| C8A A16C G19C A41C | 0.13 |
| G7C C8G A26G U28A | 0.25 |
| G7U C18U U32A | 0.07 |
| G7C C23A G27C U32A | 0.05 |
| G7U A11U G27C U34A C37U | 0.01 |
| G7U A16G G36A | 0.25 |
| G7C C23G C31G U34C A39C | 0.01 |
| G7U A12C A14U G22A G35A | 0.04 |
| G7U C13G G19A G27C C45U | 0.12 |
| G7U C10G G17A | 0.02 |

| Variant | self-cleavage |
| --- | --- |
| G7C G36U U38C | 0.07 |
| G7U C8G U38G | 0.05 |
| G7U G30U C37U A39C U43C G44A | 0.15 |
| G7U A14C G35A G36A | 0.12 |
| G7U G21U U38A C42G | 0.02 |
| G7U G29U C31A G36U | 0.02 |
| G7C C15G C42A G44C C45A | 0.02 |
| G7C C31A U34A | 0.02 |
| G7U G22A U32C | 0.03 |
| G7U A14G G44C | 0.08 |
| G7C A26U G36C A41U | 0.2 |
| G7C U20A U28A U32A U34C C37A | 0.01 |
| G7U C10A U28C | 0.03 |
| G7U G22C C23A U34C U38C | 0.23 |
| G7U A25C G27C C31U | 0.03 |
| G7U A11G C18A G30A | 0.02 |
| G7C C15G G17U G19C G35C A39U G40C | 0.01 |
| G7U A16U A25U | 0.11 |
| G7U G21U G33A | 0.1 |
| G7C C10A C13U G30U G40C | 0.02 |
| G7U A26G U34A | 0.04 |
| C8A A11U C46A | 0.02 |
| G7U A11C C15A | 0.01 |
